Test results: PMC6451091
This is one part of the list. Measured with an extract: partners may take part in the binding.

Tested on: PU.1 (endogenous, THP-1 nuclear extract) + IRF8 (endogenous, THP-1 nuclear extract)
Assay: nuclear extract protein-binding microarray (nextPBM)
Settings: 20 mM HEPES pH 7.9, 100 mM NaCl, 1 mM DTT, 0.2 mg/mL BSA, 0.02% Triton X-100, 2% milk, 0.4 mg/mL salmon testes DNA; 1 h; temperature not stated; high values mean tight binding; double strand, one strand shown; sequences stand for … in GCCTAGCAC…GTGCTAGGTCTTGATTCGCTTGACGCTGCTG

Row | Sequence | binding signal [z-score]
1 | TGACTGGAGTGTAATGAGGT | 0.357
2 | GCGGCGGGGCTGTCAGGCTC | -0.53
3 | GGCTGGCCTGCGTGAAACTC | 1.8
4 | TCCACAGCAAGGCTGCCGTG | 0.752
5 | TCTGTTACACTTAAAACACA | -1.9
6 | GGTAGAGCTGCGTGAAAGTG | 1.15
7 | ACAAACGCTGCGTGAAAGCT | -0.852
8 | GGGGAGACTGCGTGAAAGCA | -0.263
9 | TAGGGTTTAAACCTGATCAG | 0.363
10 | CCTCCACTTTGGGTAAATCT | -0.941
11 | CCAGCTTCAGTTTGCTGAGT | 0.964
12 | ACAATATTGTTTCTTTGAAA | 0.27
13 | CCATGCATAAAATTTTATGA | -1.3
14 | CTCCAAATGCATTTCTTGGT | 0.0526
15 | TCTTTTGGACTTCTGACCTC | -1.23
16 | ATTGTATTTCATCACAGTCT | -0.683
17 | GGATCCGCTGGGAGGGGTGG | 0.889

Row | Sequence | binding signal [z-score]
18 | ACGTGGGGGAGTTAAGAGAC | 0.44
19 | GAAAGGACTGCGTGAAACTG | 3.59
20 | AGGTAACCATACTGTCTTGA | 1.85
21 | AGGCAGTGAGCTAAGATTGC | 0.118
22 | TCAACATCTGCGTGAAAGTC | -0.466
23 | ATTTATGCAACTGATCACAG | -1.14
24 | ACAGGAAGCTTGGTGGACAC | 1.37
25 | GCTGTGCCTATTCTCATCTG | 0.2
26 | AATTTGACTGCCTGAAAGAA | -0.675
27 | AAATGCTTTCCCCCAAATTA | -0.785
28 | TACGTTTTTCAGAGAATTTC | -1.11
29 | GGGCCATGGATGGGCAAAAG | -0.198
30 | CCGGGGGCGGGGCTTCGCCG | -4.81
31 | TTTAGATTTTTTAAGTGAGT | -0.59
32 | TGACTCACAGACCAAGACTT | 0.976
33 | GACGGCTCCGGCGTCGGGTC | 1.19
